B1: LINE1-full (parent)
chain: UACGUAGGUGGUUUUCCCCUGAUAGUGCUAAGGGGGCCUGGAAGUUUGGACUGGGCAGAGCUCAACACAGCGUGGCAAAGUGGCUGUGGCUAGACUGCCUCUCUGGAUUCCUCGUCACUCAGCAGGGCAUCUCUGAGAGAAAUGCC

Read counts are not given, so values of variants with three or more changes are uncertain.

In the data set the parent is B1. Briefly: self-cleavage, relative activity (ratio to wild type); higher = more cleavage; in vitro, sequencing; the parent is a self-cleaving ribozyme.
Turning to G35A A43G A94G G114A, the self-cleavage is 0.18.

Consider G34U U47A U73A, for which the self-cleavage was 1.83. For the variant G32C A42G U91C A141G, the self-cleavage is 0.44. Under G34A A42G U130G A138G stands 2.15; under A31U U87A A136G, 0.15; under G35A U52C G114A U143C, 0.72.

As to A31U G33A U46C A69U U132C A140G, the self-cleavage was 0.

G32A U47A A142G: the self-cleavage was 1.01. Under G34A U52C U62A stands 0.03; under A31C A124G A129U, 2.14; under G35A U85A U102C, 0.1. As to A30U U62C A121U, the self-cleavage came to 0.04.

In the case of G34A A50G U85G U130C, the self-cleavage was 0.49. As for A31U U52C A142G, the figure is 1.62; as for A31U G35A A57G A78G A136G, 0.77; as for A31U G35A A43U A78U, 1.18. Under G34U U52A A124U stands 1.32; under A31U G36A U46C U87C U100C U143A, 0.44.

As for A31U U81A G88A U96C U119A, the self-cleavage stood at 0.07. As for A31G U87A A140G, the figure is 0.33.

Regarding A31U A79G U85C C145U, the self-cleavage amounted to 0.74.

For the variant G33A U100C U104C, the self-cleavage is 1.38.

As to G35A G74A U109C A136U, the self-cleavage came to 0.69. For G32A U47A A78U, the self-cleavage came out at 2.05.

On to A31G U108C A129U, for which the self-cleavage worked out at 1.15. As for A31G A138G A140G, the figure is 0.64; as for G32U U81C A124G A142G, 0.26; as for A31U G34A A57U A77U A79G A124G A141G, 0.02. Turning to G32U U87A U109A, the self-cleavage was 0.06.

With G35A A59U U108C A129G A141G, the self-cleavage stood at 1.02. As for G35U C103U A136G, the self-cleavage worked out at 1.24.

In the case of G33A G58A C63U, the self-cleavage was 0.16.

With G35A A79G A129U A142G, the self-cleavage was found to be 0. As for A31U A67G A138U, the figure is 0.07; as for G33U C61A A77G U81C A94G A141G, 0.04; as for A31U C37A C68U U73C G88A A142G C146A, 0.03.

On to G34U U52A G88U A92G C113U, for which the self-cleavage came to 0.07.

In the case of A31C G36A U100G C116A, the self-cleavage came to 1.23. Consider G35A A42G A117C, for which the self-cleavage was found to be 1.77.

Turning to G34A U130A A141C, the self-cleavage came to 0.89. As for A31U U100C U109A U115C, the figure is 2.12; as for G33C G53A U115A A121U U132C, 1.5; as for G33C C37G A117G A142G, 1.75.

As to A31G A78G A94G C113A G114C, the self-cleavage came to 0.2. On to G32A A79G U85C A117U, for which the self-cleavage turned out to be 0.16.

On to G35U A43G A121U U132C A142G, for which the self-cleavage amounted to 1.09. As for G35A A43G G55A C84U U104A, the figure is 0.02; as for G32A U100C U119A A121G, 1.27; as for G34U G48U A67C U104C, 0.09. Under A30U C76U U87A stands 0.1; under G33A U45C C76U U87C U96C U102C, 0.07; under G34C U109C U132C, 1.99. As for A31G A65G A78U A121U, the figure is 0.

For the variant A31U U39G A42G, the self-cleavage was found to be 0.74. As for A31G A65G U112C, the figure is 0.77. As for G33U G35A A69U U104C, the figure is 0.05; as for A30U C99A A107G, 1.05. As for A31G G33A G49A A78G A124U U132C, the figure is 0.71; as for G35A U45C U132A, 1.16. As for G34U U45C U115A, the self-cleavage is 0.64. On to G34U A142G U143A, for which the self-cleavage amounted to 1.65. Take A31C G32A U102C A121U A124G: the self-cleavage stood at 0.33. As to A31G G74A G93U, the self-cleavage came out at 0.09. As for G32U U45C U62A A67G U115C U132C, the figure is 0; as for G34U U46C A50G A65G U143C, 0.1. G32U A67G G89A: the self-cleavage turned out to be 0.03.

For A31U G35A A43G C56U U109A C145U, the self-cleavage turned out to be 0.1. Take A31G C37A U109A: the self-cleavage stood at 1.31. On to G34C U130A A136G, for which the self-cleavage came to 1.16. On to A31G G32C G55A G86U U102C A140U, for which the self-cleavage was determined as 0.07.

With A31U A77G A136G, the self-cleavage amounted to 1.68. With A31U U52C A94G, the self-cleavage was 0.63.

Consider A31G U73A U100C A136U, for which the self-cleavage was 1.34. As for G32A A94G A142G, the figure is 0.33; as for G35A G127A A142G, 0.92. On to G35A U100C U104A A138G, for which the self-cleavage amounted to 0.7.

For G33U U115G U130C A138U, the self-cleavage was determined as 1.08. A31G A117U A124G: the self-cleavage stood at 1.17. In the case of A30U U45C A140G, the self-cleavage is 1.43. As for A31G A42U G93U U143A, the figure is 0.09. G35A A67G G72U U130C A136U: the self-cleavage is 0.32. As for G33U U85G U143C, the self-cleavage stood at 0. As for A31G A64G U108A, the figure is 0.92.

The values are drawn from the RNAGym collection of RNA variant scans (doi:10.7554/elife.90254).
